Data published in PubChem BioAssay AID624173 (National Center for Advancing Translational Sciences (NCATS), 2012).
Out of some 410,000 compounds screened, about 490 (0.12%) were called active. Inconclusive results, whose numbers are uncertain, are shown with a selection of clear calls. The call rests on the fitted dose curve; in most records, active means well fitted inhibition curve with a large enough effect; inconclusive means small, poorly fitted or top-dose-only effect; inactive means flat fitted curve, though single readings scatter. Where the call is inconclusive, the potency comes from a doubtful curve fit.

Biological target: pyruvate kinase (Trypanosoma brucei) (UniProt Q57TT1)
Experiment: qHTS of Trypanosoma Brucei Inhibitors; further: nearly all actives have a fitted effect of over 50% in size
Conditions: TbPYK enzyme, Kinase-Glo Plus ATP luminescence, 45 min; series mostly up to 76.8 µM
Source text: Members of the Trypanosomatidae family of parasitic protozoans cause a spectrum of diseases throughout the tropical and subtropical world. Sleeping sickness, caused by two subspecies of Trypanosoma brucei, is endemic to areas of sub-Saharan Africa, while Chagas' disease, a manifestation of Trypanosoma cruzi infection, is prevalent throughout Central and South America. In addition, many species of Leishmania are responsible for a range of cutaneous and visceral diseases, causing ulcers, destructive lesions and kalaazar, a lethal infection of the viscera. These diseases cause severe public health and economic burdens on populations that are often already caught in a tragic cycle of poverty, poor nutrition and disease. Collectively, parasites of the trypanosomatid family infect 30 million people worldwide (~500 million live in endemic areas), and account for ~130K deaths annually. Existing treatments have developed little in the past 50 years, and suffer from toxicity, poor efficacy and resistance; the goal of this project is to develop lead drugs that will be suitable for entry into pre-clinical trials.
Glycolysis in axenically cultured T. cruzi, representing the intracellular pathogenic stage, is also essential for these parasites. {Engel, 1987} This project aims to discover and optimize selective inhibitors of the glycolytic enzyme pyruvate kinase (PYK) from Trypanosoma brucei, the parasite that causes sleeping sickness. […] Trypanosomatid PYKs show significant differences from their human counterparts including only 47-50% sequence identity and different allosteric and activation properties.{Callens, 1992} To this end, a qHTS was done against the MLSMR to discover inhibitors.
NIH Molecular Libraries Probe Production Network [MLPCN]
NIH Chemical Genomics Center [NCGC]
PI Name: Malcolm Walkinshaw, University of Edinburgh
2 uL of TbPYK/substrate buffer (columns 1-3, 5-48) are dispensed into Greiner white solid bottom 1536-well assay plates; column 4 receives only TEA buffer as 0x TbPYK controls. Compounds are then transferred via Kalypsys pin tool equipped with 1536-pin array (10 nL slotted pins, V&P Scientific, San Diego, CA). Following addition of compound, 2 uL of ADP (130 uM final concentration, all columns) is added to initiate the reaction. The plates are then incubated at room temperature for 45 minutes. Kinase-Glo Plus reagent is added (3 uL) and plates incubated for 10 minutes, before being transferred to a ViewLux high-throughput CCD imager (PerkinElmer) wherein single end-point measurements of luminescence are acquired using a clear filter. All reagents are diluted in an assay buffer consisting of 50 mM TEA (pH 7.2), 100 mM KCl, 10 mM MgCl2, 0.05% BSA and 0.01% Tween-20.
All screening operations will be performed on a fully integrated robotic system (Kalypsys, San Diego, CA) containing one RX-130 and two RX-90 anthropomorphic robotic arms (Staeubli, Duncan, SC). Library plates will be screened starting from the lowest and proceeding to the highest concentration. Vehicle-only plates, with DMSO being pin-transferred to columns 5-48, will be inserted uniformly at the beginning and the end of each library in order to monitor and record any shifts in the background, which can be affected by reagent dispensers or loss in enzyme activity over time. Screening data will be corrected, normalized, and concentration-effect relationships will be derived by using publicly-available curve fitting algorithms developed in-house (http://ncgc.nih.gov/pub/openhts).
Potency means the concentration at half of the fitted maximal effect; tags describe the fitted curve by direction and shape.

Structure (SMILES) | Potency
Cc1ccccc1CNC(=O)c1ccc(NC(=O)c2nsc3ccccc23)cc1 | inactive
O=C(/C=C/c1ccco1)N1CCN(S(=O)(=O)c2ccc(F)c(F)c2F)CC1 | inactive
S=c1[nH]nc(COc2ccccc2)n1/N=C/c1ccccn1 | inconclusive: 2 µM [inhibitor, partial curve, poor fit]
COc1ccc2nc(SCC(=O)N3CCN(c4ccc(F)cc4)CC3)c(C#N)cc2c1 | inconclusive: 28.2 µM [inhibitor, single point]
COc1cc(N2C(=O)C=CC2=O)c(OC)cc1Cl | inconclusive: 8.91 µM [inhibitor, partial curve, poor fit]
Cc1nn(CC(=O)NCc2ccco2)c(=O)c2cc3ccccc3n12 | inactive
Cc1cc(C)nc(NC2=NCCN2C(=O)NC2CCCCC2)n1 | inconclusive: 31.6 µM [inhibitor, single point]
CSc1cccc(NC(=O)COc2ccccc2)c1 | inconclusive: 35.5 µM [inhibitor, single point]
Cc1c(NC(=O)c2cc([N+](=O)[O-])ccc2N2CCOCC2)cccc1-c1nc2ccccc2o1 | inactive
O=C1SC(SC(=Nc2ccccc2)Nc2ccccc2)C(=O)N1c1ccccc1 (stereo not drawn) | inconclusive: 39.8 µM [inhibitor, partial curve, poor fit]
CCn1c2c(c(=O)n3ncc(C(=O)Nc4cc(Cl)ccc4C)c13)CN(Cc1ccc(OC)cc1)CC2 | inconclusive: 39.8 µM [inhibitor, partial curve, poor fit]
C[C@@H]1O[C@@H](O[C@@H]2[C@@H](O)[C@H](OCCc3ccc(O)c(O)c3)O[C@H](CO)[C@H]2OC(=O)/C=C/c2ccc(O)c(O)c2)[C@H](O)[C@H](O)[C@H]1O | inconclusive: 35.5 µM [inhibitor, partial curve, poor fit]
CCOC(=O)C(=C1Nc2ccccc2N1)n1c(-c2ccco2)nc2ccccc21 | inconclusive: 25.1 µM [inhibitor, partial curve, poor fit]
Cc1onc(-c2ccccc2)c1-c1n[nH]c(=S)n1-c1ccccc1 | inconclusive: 7.94 µM [inhibitor, partial curve, poor fit]
CC(=O)Nc1ccc(N=C(C2=C(O)c3ccccc3C2=O)c2ccccc2)cc1 | inactive
C=CCn1c(Cc2nc3ccc(Cl)cc3[nH]2)n[nH]c1=S | inconclusive: 3.16 µM [inhibitor, partial curve]
CC1(C(=O)O)CCCN(C(=O)c2ccc(OC(F)F)cc2)C1 (stereo not drawn) | inactive
Cc1ccc(C2(C)NC(=O)N(CC(=O)Nc3nc(-c4ccccn4)cs3)C2=O)cc1 (stereo not drawn) | inconclusive: 28.2 µM [inhibitor, single point]
COc1ccc(C(=O)OCc2cc(=O)n3nc(-c4cccs4)sc3n2)cc1 | inactive
Cc1ccc(N2C(=O)NC(=O)/C(=C\c3ccoc3)C2=O)cc1 | inconclusive: 31.6 µM [inhibitor, partial curve]
Cc1ccsc1C(=O)N1CCN(S(=O)(=O)c2cccc(F)c2)CC1 | inactive
Cc1ccc(C(=O)Nc2ccc3c(c2)OCCO3)c(C)c1 | inconclusive: 35.5 µM [inhibitor, single point]
Cn1c(/C=C/c2ccc(Cl)cc2)nc2ccccc2c1=O | inconclusive: 35.5 µM [inhibitor, single point]

Structure (SMILES) | Potency
C=CCn1c(=O)c2ccccc2n2c(=S)[nH]nc12 | inconclusive: 39.8 µM [inhibitor, partial curve, poor fit]
O=C(Nc1ccccc1)c1snc2c(=O)[nH]cnc12 | inactive
CCOC(=O)c1scc(-c2ccc(C)cc2)c1S(=O)(=O)Nc1cc(OC)ccc1OC | inconclusive: 39.8 µM [inhibitor, partial curve, poor fit]
COc1ccc2[nH]c3c(=O)n(Cc4ccc(C(=O)N5CCCCCC5)cc4)c(=S)[nH]c3c2c1 | inconclusive: 2.24 µM [inhibitor, full curve, poor fit]
Nc1ccc(Nc2ccccc2)c(Cl)c1 | inactive
CC(C)c1ccc(N2C(=O)C(Cl)=C(N3CCOCC3)C2=O)cc1 | inactive
Cc1ccc2c(c1)=NC(=O)/C(=C/c1c(O)[nH]c(=O)[nH]c1=O)C=2 | inconclusive: 28.2 µM [inhibitor, partial curve]
Cc1ccc(S(=O)(=O)/N=C(/Nc2cccc(C(=O)O)c2)c2ccccc2)cc1 | inactive
CC(C)N1CCC(N2CCN(Cc3ccc(-c4ccccc4Cl)o3)CC2CCO)CC1 (stereo not drawn) | inactive
Cc1ccc(/C=N/n2c(-c3ccncc3)n[nH]c2=S)cc1 | inconclusive: 5.62 µM [inhibitor, partial curve, poor fit]
O=C1C2C3C=CC(C4CC34)C2C(=O)N1/N=C/c1ccc(-c2ccc(F)cc2[N+](=O)[O-])o1 (stereo not drawn) | inactive
Cc1ccc(/C=C2/NC(=O)N(Cc3ccccc3F)C2=O)o1 | inconclusive: 31.6 µM [inhibitor, partial curve, poor fit]
CSc1ccccc1C(=O)Nc1ccccc1C(=O)NC(C)C | inconclusive: 50.1 µM [inhibitor, single point]
COc1ccccc1N1CCN(/N=C/c2ccc(O)c(O)c2)CC1 | inconclusive: 50.1 µM [inhibitor, single point]
Cc1ccnc(NC(=S)N2CCN(c3cccc(C(F)(F)F)c3)CC2)c1 | inconclusive: 11.2 µM [inhibitor, partial curve]
Cc1cc(C2=NNC(=Nc3ccc(S(=O)(=O)N4CCOCC4)cc3)SC2)c(C)n1C | inconclusive: 15.8 µM [inhibitor, partial curve, poor fit]
CCOC(=O)N1CCN(Cc2nc(-c3ccccc3)no2)CC1 | inactive
CCN1/C(=C2\C(=O)N(C)C(=S)N2c2ccccc2)C=Cc2ccccc21 | inconclusive: 22.4 µM [inhibitor, partial curve]
Cc1c(C(=O)NCc2ccc(Cl)cc2)sc2nc3n(c(=O)c12)CCCCC3 | inconclusive: 39.8 µM [inhibitor, single point]
COc1ccc(CCNc2ncnc3c2nnn3C)cc1OC | inactive
Oc1ccc(C=NNC(=S)Nc2cccnc2)nc1 | inconclusive: 31.6 µM [inhibitor, partial curve, poor fit]
COc1ccc2c(CNCc3ccco3)c(C(=O)O)n(Cc3ccc(F)cc3Cl)c2c1 | inactive
CC(O)CNc1nc2c(c(=O)n(Cc3ccc(Cl)c(Cl)c3)c(=O)n2C)n1C (stereo not drawn) | inconclusive: 50.1 µM [inhibitor, single point]

Structure (SMILES) | Potency
O=C1CCCC(O)=C1C(C#Cc1ccccc1)C1=C(O)CCCC1=O | inconclusive: 28.2 µM [inhibitor, partial curve, poor fit]
CCC(CC)C(=O)Nc1ccc(OCc2cc(=O)n3ccc(C)cc3n2)cc1 | inactive
CC(=O)c1cccc(NC(=O)C(C)OC(=O)CCc2nc3ccccc3c(=O)[nH]2)c1 (stereo not drawn) | inactive
C1CCC(Nc2nnnn2C2CCCCC2)CC1 | inactive
COc1ccc(NC(=O)c2c(NCc3cccs3)sc3c2CCCCC3)cc1 | inconclusive: 28.2 µM [inhibitor, partial curve, poor fit]
CCCN(CC#CCO)CCC | inconclusive: 39.8 µM [inhibitor, single point]
CCOC(=O)Cc1csc(NC(=O)Nc2ccc(F)cc2)n1 | inactive
COc1ccc(NC(=O)COc2ccccc2C(N)=O)cc1S(=O)(=O)N1CCCCC1 | inactive
O=C(/C=C/c1ccco1)Nc1ccccc1C(=O)O | inconclusive: 39.8 µM [inhibitor, partial curve, poor fit]
COc1ccc2c(CN3CC=C(c4ccccc4)CC3)cc(=O)oc2c1 | inconclusive: 5.62 µM [inhibitor, full curve]
CC(c1ccccc1)n1c(-c2ccc(Cl)cc2)n[nH]c1=S (stereo not drawn) | inconclusive: 10 µM [inhibitor, partial curve, poor fit]
O=[N+]([O-])c1ccc(/C=N/n2c(-c3cccnc3)n[nH]c2=S)cc1 | inconclusive: 2.82 µM [inhibitor, full curve]
CN(C)c1ccc(-c2nc3ccccc3n2C)cc1 | inconclusive: 35.5 µM [inhibitor, partial curve, poor fit]
O=C1NC(=O)N(Cc2ccc(F)cc2)C(=O)/C1=C/c1cccs1 | inconclusive: 28.2 µM [inhibitor, partial curve, poor fit]
COc1cccc(C(=O)Nc2cccc(OC(C)=O)c2)c1 | inactive
CCn1c2c(c(=O)n3ncc(C(=O)Nc4ccc(C(=O)OC)cc4)c13)CN(Cc1ccc(OC)cc1)CC2 | inconclusive: 28.2 µM [inhibitor, single point]
c1ccc(CSc2nnc(-c3ccco3)c(-c3ccco3)n2)cc1 | inconclusive: 25.1 µM [inhibitor, partial curve]
CC(=O)/C(=N\Nc1ccc(C)cc1)Sc1nncn1C | inconclusive: 17.8 µM [inhibitor, partial curve, poor fit]
CCCOc1ccc(C(=O)NNC(=S)NC(C)=O)cc1 | inconclusive: 20 µM [inhibitor, partial curve, poor fit]
CCOc1ccc(C(=S)NC2CCCCC2)cc1OC | inconclusive: 8.91 µM [inhibitor, full curve]
CC1=C/C(=C\c2ccc(Br)o2)C(=O)O1 | inactive
COc1cc(/C=C2\C(=O)ON=C2c2ccccc2)cc(OC)c1OC | inconclusive: 31.6 µM [inhibitor, partial curve]
